Reference: the domain aggregation screens of Martell et al. (2025)

Experiment: soluble fraction after stress (log2 fold change); higher = more stays soluble; pooled small domains, quantitative proteomics
Conditions: stress: 75 degC
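Further: 20 min heating vs room temperature control held 20 min.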

| Sequence | soluble fraction (log2) |
| --- | --- |
| HMEVITIENEDAFTEGRAFAHSEGILVGISSGAALKAATILAERPENKGKTIVALLPDSGDRYLSTALFA | 0.135 |
| HMGGKYKPLILWHLIEGTKRFSALQRLLPQATPRMLTMNLRELESDGLVHRKVYPEVPPKTEYSLSDLGK | -0.387 |
